Data published in ChEMBL document CHEMBL1961873, “Compounds: GSK PKIS; Assays: Nanosyn kinase panel” (2012).
For some of these results: The strong results were mostly taken out for another list; the other results follow. The list shows a part of the results, in another mix than the full data.

These molecules were tested against Protein kinase C eta type (Homo sapiens) (UniProt P24723). Conditions: at 1 µM.
Chain of UniProt P24723 (P24723 whole entry): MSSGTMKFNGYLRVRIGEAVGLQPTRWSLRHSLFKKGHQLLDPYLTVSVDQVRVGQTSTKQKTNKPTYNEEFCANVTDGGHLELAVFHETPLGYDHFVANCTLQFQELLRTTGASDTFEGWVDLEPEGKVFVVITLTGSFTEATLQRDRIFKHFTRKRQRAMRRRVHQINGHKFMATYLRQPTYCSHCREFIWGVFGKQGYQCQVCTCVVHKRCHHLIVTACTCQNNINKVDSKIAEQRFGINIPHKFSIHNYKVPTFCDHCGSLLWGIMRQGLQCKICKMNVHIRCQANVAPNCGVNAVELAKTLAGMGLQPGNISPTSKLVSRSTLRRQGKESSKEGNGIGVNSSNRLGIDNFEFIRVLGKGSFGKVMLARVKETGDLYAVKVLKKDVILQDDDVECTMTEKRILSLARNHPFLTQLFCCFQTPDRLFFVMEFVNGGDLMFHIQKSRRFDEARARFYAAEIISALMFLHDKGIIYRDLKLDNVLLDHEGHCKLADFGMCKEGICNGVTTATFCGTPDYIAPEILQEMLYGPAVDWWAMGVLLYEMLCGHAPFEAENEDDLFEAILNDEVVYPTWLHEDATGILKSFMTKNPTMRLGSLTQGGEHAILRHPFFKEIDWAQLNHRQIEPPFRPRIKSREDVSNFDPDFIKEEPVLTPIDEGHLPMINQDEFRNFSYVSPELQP

SMILES	inhibition [%]
O=C1NC(=O)C(c2ccccc2)=C1Nc1ccccc1	8.36
CC(C)(C)c1ccc(Oc2nccc(-c3c(-c4ccc(F)cc4)ncn3C3CCNCC3)n2)cc1	5.77
Cc1cccc(Oc2nccc(-c3c(-c4ccc(F)cc4)ncn3C3CCNCC3)n2)c1C	3.94
Fc1ccc(-c2ncn(C3CCNCC3)c2-c2ccnc(Oc3cccc(C(F)(F)F)c3)n2)cc1	3.59
Fc1ccc(-c2ncn(C3CCNCC3)c2-c2ccnc(Oc3cccc(F)c3)n2)cc1	5.74
O=C1NC(=O)C(c2ccccc2Cl)=C1Nc1cc(Cl)c(O)c(Cl)c1	5.57
CS(=O)(=O)c1ccc(Oc2nccc(-c3c(-c4ccc(F)cc4)ncn3C3CCNCC3)n2)cc1	4.36
COc1ccccc1C1=C(Nc2ccccc2)C(=O)NC1=O	7.31
COc1ccccc1Oc1nccc(-c2c(-c3ccc(F)cc3)ncn2C2CCNCC2)n1	6.84
NC(=O)CCc1ccccc1Oc1nccc(-c2c(-c3ccc(F)cc3)ncn2C2CCNCC2)n1	-0.13
Fc1ccc(Oc2nccc(-c3c(-c4ccc(F)cc4)ncn3C3CCNCC3)n2)cc1	5.19
O=C1NC(=O)C(c2cccc([N+](=O)[O-])c2)=C1Nc1cc(Cl)c(O)c(Cl)c1	1.81
Fc1ccc(-c2ncn(C3CCNCC3)c2-c2ccnc(Oc3ccc(Cl)cc3)n2)cc1	3.69
O=C(O)c1ccc(Oc2nccc(-c3c(-c4ccc(F)cc4)ncn3C3CCNCC3)n2)cc1	5.29

These molecules were tested against Protein kinase C gamma type (Homo sapiens) (UniProt P05129). Conditions: at 0.1 µM.

SMILES	inhibition [%]
O=C1NC(=O)C(c2ccccc2)=C1Nc1ccccc1	2.11
CC(C)(C)c1ccc(Oc2nccc(-c3c(-c4ccc(F)cc4)ncn3C3CCNCC3)n2)cc1	2.31
Cc1cccc(Oc2nccc(-c3c(-c4ccc(F)cc4)ncn3C3CCNCC3)n2)c1C	2.45
Fc1ccc(-c2ncn(C3CCNCC3)c2-c2ccnc(Oc3cccc(C(F)(F)F)c3)n2)cc1	0.59
Fc1ccc(-c2ncn(C3CCNCC3)c2-c2ccnc(Oc3cccc(F)c3)n2)cc1	2.57
O=C1NC(=O)C(c2ccccc2Cl)=C1Nc1cc(Cl)c(O)c(Cl)c1	10.1
CS(=O)(=O)c1ccc(Oc2nccc(-c3c(-c4ccc(F)cc4)ncn3C3CCNCC3)n2)cc1	1.85
COc1ccccc1C1=C(Nc2ccccc2)C(=O)NC1=O	5.14
COc1ccccc1Oc1nccc(-c2c(-c3ccc(F)cc3)ncn2C2CCNCC2)n1	1.62
NC(=O)CCc1ccccc1Oc1nccc(-c2c(-c3ccc(F)cc3)ncn2C2CCNCC2)n1	0.02
Fc1ccc(Oc2nccc(-c3c(-c4ccc(F)cc4)ncn3C3CCNCC3)n2)cc1	0.91
O=C1NC(=O)C(c2cccc([N+](=O)[O-])c2)=C1Nc1cc(Cl)c(O)c(Cl)c1	-1.64
Fc1ccc(-c2ncn(C3CCNCC3)c2-c2ccnc(Oc3ccc(Cl)cc3)n2)cc1	-0.24
O=C(O)c1ccc(Oc2nccc(-c3c(-c4ccc(F)cc4)ncn3C3CCNCC3)n2)cc1	2.37
